In the supplement of paper PMC11348887:
Where a name gives a salt, the structure may show the parent alone. This is one part of the list. No stated cut-off is given here; in the data, active = -2 or less and inactive = the rest. Many values rest on one well or one pass, so single values are uncertain.

System: hPSC-derived cortical neurons (WA09)
Assay: nuclei number (viability) z-score; higher = more surviving cells
Details: 5 µM; treatment: days 7-14 after plating, readout day 21
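Further: nuclei counted from DAPI counterstain by automated high-content image analysis, four fields per well at ×20 in 384-well plates, with sequential b-score then z-score normalization.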

Compound	nuclei number (z-score)
COCCOc1ccc2c(c1)ncn2-c1ccc2cccc(N3CCC(N)CC3)c2n1	inactive: 1.28
Cc1cc(Nc2cc(N3CCN(C)CC3)nc(/C=C/c3ccccc3)n2)n[nH]1 [ENMD-2076 L-(+)-Tartaric acid]	inactive: -0.415
Cc1cc(Nc2cc(N3CCN(C)CC3)nc(/C=C/c3ccccc3)n2)n[nH]1	inactive: -0.797
Cc1cc(-c2ccc(CC(=O)Nc3ccc(-c4cccnc4)cc3)cc2)ccn1	inactive: -0.828
COc1ccc(C2CC(c3ccccc3)=NN2c2ccc(S(N)(=O)=O)cc2)cc1 (stereo not given)	inactive: 0.159
OC[C@H]1O[C@@H](c2ccc(Cl)c(Cc3ccc(O[C@H]4CCOC4)cc3)c2)[C@H](O)[C@@H](O)[C@@H]1O	inactive: 0.00464
Cc1nc(C#Cc2ccnc(Cl)c2)c(C)n1-c1ccc(OC(F)(F)F)cc1	inactive: 1.15
CN(C)c1cccc(-c2c3c(=O)n(-c4ccccc4Cl)[nH]c3cc(=O)n2C)c1	inactive: -0.319
COC(=O)C1=C(C)NC(C)=C(C(=O)OCCN(C)Cc2ccccc2)C1c1cccc([N+](=O)[O-])c1 (stereo not given) [Nicardipine HCl]	inactive: -0.987
CC1(C)CNc2cc(NC(=O)c3cccnc3NCc3ccncc3)ccc21 [Motesanib Diphosphate (AMG-706)]	inactive: -0.459
CC[C@@H]1/C=C(\C)C[C@H](C)C[C@H](OC)[C@H]2O[C@@](O)(C(=O)C(=O)N3CCCC[C@H]3C(=O)O[C@H](/C(C)=C/[C@@H]3CC[C@@H](O)[C@H](OC)C3)[C@H](C)[C@@H](O)CC1=O)[C@H](C)C[C@@H]2OC [Ascomycin (FK520)]	active: -2.82
COc1ccc(N2C(=O)/C(=C\c3ccc([N+](=O)[O-])s3)SC2=S)cc1	inactive: 4.39
Oc1cc(O)c(Cl)cn1 [Gimeracil]	inactive: 1.92
COc1ccc2cc(OCC3(C(=O)O)CN(C(=O)c4ccc(F)cc4)C3)ccc2c1	inactive: -0.195
COC(=O)C1=C(C)NC(C)=C(C(=O)OCC(C)C)C1c1ccccc1[N+](=O)[O-] (stereo not given) [Nisoldipine]	inactive: -1.56
CC(O)(P(=O)(O)O)P(=O)(O)O [Etidronate]	inactive: 0.468
Nc1ncnc2c1C(=O)N(c1ccc([C@H]3CC[C@H](CC(=O)O)CC3)cc1)CCO2	inactive: 0.587
O=C1[C@H](CC[C@H](O)c2ccc(F)cc2)[C@@H](c2ccc(O)cc2)N1c1ccc(F)cc1 [Ezetimibe]	inactive: -0.689
c1cc(-c2cnn3cc(-c4ccc(OCCN5CCCCC5)cc4)cnc23)ccn1 [Dorsomorphin (Compound C)]	inactive: 0.146
c1cc(-c2cnn3cc(-c4ccc(OCCN5CCCCC5)cc4)cnc23)ccn1 [Dorsomorphin 2HCl]	inactive: -0.696
CN1CCC(NC(=O)c2cc(-c3c(O)cc(O)cc3Oc3ccc([N+](=O)[O-])cc3)on2)CC1	active: -4.27
Cc1cc(-c2ncc(CC(=O)Nc3ccc(-c4cnccn4)cn3)cc2C)ccn1	inactive: 1.08
Cc1cnc(C(=O)NCCc2ccc(S(=O)(=O)NC(=O)NC3CCCCC3)cc2)cn1 [Glipizide]	inactive: -0.534
COc1ncc(-c2ccc3nccc(-c4ccnnc4)c3c2)cc1NS(=O)(=O)c1ccc(F)cc1F	active: -6.65

Compound	nuclei number (z-score)
COc1cc2ncnc(Oc3ccc(CC(=O)Nc4cnn(C(C)C)c4)cc3)c2cc1OC	inactive: -0.273
CN1CCC(=C2c3ccccc3CCc3sccc32)CC1 [Pizotifen Malate]	inactive: -0.541
CN1CCOC(c2ccccc2)c2ccccc2C1 (stereo not given) [Nefopam HCl]	inactive: -0.172
CC(C)=CCC/C(C)=C/CC/C(C)=C/CSc1ccccc1C(=O)O [Salirasib]	inactive: 3.04
CCCCCOC(=O)Nc1nc(=O)n([C@@H]2O[C@H](C)[C@@H](O)[C@H]2O)cc1F [Capecitabine]	inactive: 1.23
CCCCNc1ccc(C(=O)OCCN(C)C)cc1 [Tetracaine HCl]	inactive: -1.05
O=C(O)[C@H]1CSC(c2nc3ccc(O)cc3s2)=N1 [D-Luciferin]	inactive: 6.28
CCN(CC)CCOc1ccc(C(=C(Cl)c2ccccc2)c2ccccc2)cc1 [Clomifene citrate]	active: -5.98
CN(C)CCCn1cc(C2=C(c3c[nH]c4ccccc34)C(=O)NC2=O)c2ccccc21	inactive: -0.102
COc1nc(N)nc2c1ncn2[C@@H]1O[C@H](CO)[C@@H](O)[C@@H]1O [Nelarabine]	inactive: -0.418
COc1ccccc1N1CCN(CCCNc2cc(=O)n(C)c(=O)n2C)CC1 [Urapidil HCl]	inactive: 1.6
O=C(Nc1cccc(Nc2ncc(Br)c(NCCc3cnc[nH]3)n2)c1)N1CCCC1	inactive: 0.429
CCN(CC)Cc1cc(Nc2ccnc3cc(Cl)ccc23)ccc1O [Amodiaquine dihydrochloride dihydrate]	active: -2.14
Cc1cc(C)nc(SCC(=O)Nc2ncc(Cc3cccc4ccccc34)s2)n1	inactive: 0.386
O=C(O)C(S)=Cc1c[nH]c2ccc(F)cc12	inactive: 3.71
O=C(/C=C/C=C/c1ccc2c(c1)OCO2)N1CCCCC1 [Piperine]	inactive: 0.473
O=c1c2ccccc2nc2n1CCc1c-2[nH]c2ccccc12 [Rutaecarpine]	inactive: -0.13
CCC(=O)OCC(=O)[C@@]1(OC(=O)CC)[C@@H](C)C[C@H]2[C@@H]3CCC4=CC(=O)C=C[C@]4(C)[C@@]3(Cl)[C@@H](O)C[C@@]21C [Beclomethasone dipropionate]	inactive: 2.25
CC(C)NCC(O)c1cc(O)cc(O)c1 (stereo not given) [Metaproterenol Sulfate]	inactive: 0.00371
C[C@H]1Oc2cc(cnc2N)-c2c(nn(C)c2C#N)CN(C)C(=O)c2ccc(F)cc21	inactive: 0.219
C[C@@]1(c2cc(-c3cncnc3)c(F)cc2F)CCSC(N)=N1	inactive: 0.83
O=C1NC(=O)[C@@H](c2cn3c4c(cccc24)CCC3)[C@@H]1c1c[nH]c2ccccc12 [Tivantinib (ARQ 197)]	inactive: -1.14
CCc1cnn2c(NCc3ccc[n+]([O-])c3)cc(N3CCCC[C@H]3CCO)nc12	active: -6.61
CC(C)(C(=O)NCC(F)(F)C(F)(F)F)C(=O)N[C@@H]1C(=O)Nc2ccccc2-c2ccccc21	inactive: -0.313

Compound	nuclei number (z-score)
Cc1cc(C)c(CNC(=O)c2cc(-c3ccc(N4CCN(C)CC4)nc3)cc3c2c(C)cn3C(C)C)c(=O)[nH]1	inactive: 0.361
Cc1ccc(-c2c(-c3nn(C)c4ncnc(N5CC[C@H](N6CCCCC6)C5)c34)cnn2C)cc1	inactive: 0.367
Cc1ccsc1C(=CCCN1CCC[C@@H](C(=O)O)C1)c1sccc1C [Tiagabine]	inactive: 0.797
Cc1ccsc1C(=CCCN1CCC[C@@H](C(=O)O)C1)c1sccc1C [Tiagabine hydrochloride]	inactive: -0.134
O=C1c2c(O)cc(O)cc2O[C@H](c2cc(O)c(O)c(O)c2)[C@H]1O [Dihydromyricetin]	inactive: -1.98
O=C1OC(CN2CCOCC2)CN1/N=C/c1ccc([N+](=O)[O-])o1 (stereo not given) [Furaltadone HCl]	inactive: 0.575
O=C(CNc1ccc2ccccc2c1)N/N=C/c1cc(Br)c(O)c(Br)c1O	inactive: 1.15
C[C@H]1[C@H](OC(=O)CCC(=O)O)O[C@@H]2O[C@@]3(C)CC[C@H]4[C@H](C)CC[C@@H]1[C@@]24OO3 [Artesunate]	inactive: 0.0144
CCOc1cc(N)c(Cl)cc1C(=O)NCC1CN(Cc2ccc(F)cc2)CCO1 (stereo not given) [Mosapride Citrate]	inactive: 0.672
COC(=O)[C@H](CCSC)NC(=O)c1ccc(NC[C@@H](N)CS)cc1-c1ccccc1	inactive: 0.372
Cc1cccc(Nc2ccccc2C(=O)O)c1C [Mefenamic Acid]	inactive: -0.863
CCC(C)n1ncn(-c2ccc(N3CCN(c4ccc(OCC5COC(Cn6cncn6)(c6ccc(Cl)cc6Cl)O5)cc4)CC3)cc2)c1=O (stereo not given) [Itraconazole]	inactive: 0.373
C[n+]1ccccc1/C=N/O [Pralidoxime chloride]	inactive: 1.54
CN(C)CCNC(=O)c1cccn2c(=O)c3cc4ccccc4cc3nc12	active: -4.53
CC1(C)S[C@@H]2[C@H](NC(=O)Cc3ccccc3)C(=O)N2[C@H]1C(=O)O [Penicillin G Sodium]	inactive: -0.221
CCCCc1nc(Cl)c(CO)n1Cc1ccc(-c2ccccc2-c2nnn[nH]2)cc1 [Losartan Potassium (DuP 753)]	inactive: -0.277
O=C(Nc1cccc2cccnc12)c1ccc(N2C(=O)[C@@H]3[C@H](C2=O)[C@@H]2C=C[C@H]3C2)cc1 [IWR-1-endo]	inactive: 0.288
C=CCn1c(=O)c2cnc(Nc3ccc(N4CCN(C)CC4)cc3)nc2n1-c1cccc(C(C)(C)O)n1	inactive: 0.499
CCOc1ccc(NC(=O)CC(C)O)cc1 (stereo not given) [Bucetin]	inactive: 0.588
Clc1ccc(C(Cn2ccnc2)OCc2csc3c(Cl)cccc23)c(Cl)c1 (stereo not given) [Sertaconazole nitrate]	inactive: -0.706
CC(=O)OCC1=C(C(=O)O)N2C(=O)[C@@H](NC(=O)Cc3cccs3)[C@H]2SC1 [Cephalothin]	inactive: -0.37
Cc1nc2n(c(=O)c1CCN1CCC(c3noc4cc(F)ccc34)CC1)CCCC2O (stereo not given) [Paliperidone]	inactive: 0.865
